Screen size: about 43,000 compounds; about 200 (0.47%) were called active. Not shown: some 12% with an inconclusive outcome. The call rests on the fitted dose curve; in most records, active means well fitted cell-killing curve with a large enough effect; inconclusive means small, poorly fitted or top-dose-only effect, or effect the other way; inactive means flat fitted curve, though single readings scatter. Some of the results follow.
Experiment: Cell viability qHTS assay in S16 Pmp22-F2sN cells; further: nearly all actives have a fitted effect of over 65% in size
Conditions: S16 Pmp22-F2sN Schwann cells viability, CellTiter-Glo, 24 h; series mostly up to 57.5 µM; activity change, negative = cytotoxicity: at the top concentration
Method in brief: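 Used to flag compounds lowering reporter output through toxicity, this quantitative HTS measures ATP-based CellTiter-Glo luminescence in S16 Pmp22-F2sN Schwann cells after 24 h compound exposure at 37C.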
On the % scale 0 is the no-effect control and ±100 the full control effect.

SMILES	activity change, negative = cytotoxicity
COc1ccc(-c2nc3c(c(SCC(=O)Nc4ccccc4F)n2)Cc2cc(C)ccc2O3)cc1	inactive: -0.0014%
CC(=O)c1ccc(NC(=O)c2cc(S(=O)(=O)N3CCCCCC3)cn2C)cc1	inactive: 0.636%
O=C(CNC(=O)c1ccccc1)OCc1cc(=O)n2ccsc2n1	inactive: -21%
CC1CCn2c(nc3cc(C(=O)NCc4ccccc4)ccc32)C1 (configuration not stated)	inactive: 7.66%
Cc1ccc(C)c(N2CCN(C(=O)C3CCCN(Cc4nc(-c5cccc(Cl)c5)oc4C)C3)CC2)c1 (configuration not stated)	inactive: 16.4%
NC(=O)C1(N2CCCCC2)CCN(C(=O)Nc2ccc(F)cc2)CC1	inactive: 2.02%
CCc1ccccc1NC(=O)CN1C(=O)c2ccccc2Sc2ncccc21	inactive: 17.6%
CCCNC(=O)c1ccc2c(c1)sc1nc(-c3ccc(C)cc3)cn12	inactive: 1.72%
CCCn1cc(S(=O)(=O)c2ccc(CC)cc2)c(=O)c2cc(F)c(N(CC)CC)cc21	inactive: -0.743%
CCOc1cccc(NC(=O)CSc2ncc(-c3ccccc3)[nH]2)c1	inactive: 0.0711%
CCOc1ccc(CNC(=O)c2cc(=O)[nH]c3ccc(S(=O)(=O)N4CCCC4)cc23)cc1	inactive: 8.57%
COc1ccc(Cl)cc1CNCCSc1nnnn1C	inactive: -10.4%
CCOc1cccc2sc(N3CCN(C(=O)C4CC4)CC3)nc12	inactive: 18.6%
Cc1cccc(N2CCN(C(=O)c3ccc4c(c3)N(Cc3cccc(Cl)c3)C(=O)c3ccccc3S4=O)CC2C)c1 (configuration not stated)	inactive: -13%
O=C(O)c1c(CNCc2cccc(F)c2)c2ccccc2n1Cc1ccccc1	inactive: 2.74%
O=C(NCC(c1ccc2c(c1)OCO2)N1CCOCC1)C(=O)Nc1cccc(Cl)c1 (configuration not stated)	inactive: 0.842%
COc1ccc(OC)c(CNC(=O)c2nn(C)c3c2CSc2ccccc2-3)c1	inactive: -28.2%
Fc1cccc(Cl)c1Cn1c(-c2cccs2)nc2ccccc21	inactive: 7.2%
Cc1ccc(NC(=O)CCC(=O)N2Cc3ccccc3Oc3ncccc32)cc1F	inactive: -3.11%
O=C(NCc1ccc(F)cc1)c1ccc2nc(N3CCCCC3)sc2c1	inactive: -6.51%
CCOc1ccc(NC(=O)c2ccc3c(c2)CCN3S(=O)(=O)c2ccc(Cl)cc2)cc1	inactive: 6.62%

SMILES	activity change, negative = cytotoxicity
CCCCN(C)C(=O)C1CCCN(c2ncnc3onc(C)c23)C1 (configuration not stated)	inactive: -23.7%
COc1ccccc1N1CCN(C(=O)Cn2cnc3onc(-c4ccc(F)cc4)c3c2=O)CC1	inactive: -1.36%
CCc1nn(CC(=O)NCCCN(CC(C)C)CC(C)C)c(=O)c2cc3sc(C)cc3n12	inactive: -4.35%
COc1cccc(N2CC(NC(=O)c3ccco3)CC2=O)c1 (configuration not stated)	inactive: 0.817%
O=C(c1ccc2c(=O)n(CCc3ccccc3)c(=O)[nH]c2c1)N1CCN(c2ccc(F)cc2)CC1	inactive: 5.37%
Cc1nn(-c2ccccc2)c2c1N(CC(=O)N1CCN(c3cccc(Cl)c3)CC1)C(=O)CS2	inactive: 11.2%
COc1ccc(Cn2c(=O)c3oc4ccccc4c3n(Cc3cccc(C(F)(F)F)c3)c2=O)cc1	inactive: -3.13%
Cc1ccccc1-c1nc2cc(NC(=O)Cc3ccc(Cl)cc3)ccc2o1	inactive: 9.57%
CCCCCCOc1ccc(C2C(=O)N(C3CCCCC3)CC(=O)N2CCC)cc1 (configuration not stated)	inactive: -17.8%
CCOc1ccccc1CNC(=O)C1CCN(c2nn3cc(-c4ccc(F)cc4)nc3s2)CC1	inactive: -3%
Cc1cccc(N2CCN(C(=O)c3cccc(-n4c(C)nc5cccnc54)c3)CC2)c1C	inactive: -0.0024%
COc1ccccc1Cc1nc2ccccc2nc1SCC(=O)N(C)c1ccc(F)cc1	inactive: -12.1%
Cc1cccc(N2CCN(C(=O)Nc3cn(CC(C)C)c(=O)c4ccccc34)CC2)c1C	inactive: -3.99%
CC(C)c1ccc(CN(Cc2ccco2)c2cnc(S(C)(=O)=O)nc2C(=O)Nc2ccc(F)cc2)cc1	inactive: -0.572%
Cc1ccc(C(=O)Nc2cc3nn(-c4ccccc4)nc3cc2Cl)c(C)c1	inactive: 2.41%
CCOc1ccccc1N(CC(=O)NCCSc1ccccc1)S(=O)(=O)c1ccccc1	inactive: -21.3%
N#C/C(=C\c1ccc(Cl)cc1Cl)c1nc(-c2cccc(Cl)c2)cs1	inactive: 7.65%
Cc1cccc(NC(=O)CCCCCn2c(=O)[nH]c3ccsc3c2=O)c1	inactive: -1.04%
CCOc1ccc(CCNC(=O)CCCn2nc(C)c3sc4ccccc4c3c2=O)cc1	inactive: 16.5%
CCOC(=O)C1CCCN(C(=O)c2cc3c(=O)[nH]c4ccc(C)cc4c3s2)C1 (configuration not stated)	inactive: 16.8%
CCC(C(=O)Nc1c(C)cc(C)cc1C)n1c(=O)c(-c2ccccc2NC(C)=O)nc2ccccc21 (configuration not stated)	inactive: -2.12%

SMILES	activity change, negative = cytotoxicity
COc1ccc(NC(=O)CSc2nnc(NC(=O)Nc3ccc(OC)cc3)s2)cc1	inactive: 11.9%
Cc1ccc(-c2noc(CNC(=O)c3ccc(Br)o3)n2)cc1	inactive: -0.584%
Cc1ccc(NS(=O)(=O)c2c(C)[nH]c(=O)[nH]c2=O)c(C)c1	inactive: -0.709%
COc1cccc(N2CC(NC(=O)CCCc3ccccc3)CC2=O)c1 (configuration not stated)	inactive: -22.8%
COc1ccc(NC(=O)CC2C(=O)N(c3cccc(C)c3)C(=O)N2C2CCCCC2)cc1 (configuration not stated)	inactive: 1.42%
CC(=O)c1cccc(NC(=O)c2cc(-c3ccc(Cl)s3)nc3ccccc23)c1	inactive: -19.9%
COc1cccc(C(=O)Nc2ccc(-c3cc(C(F)(F)F)nn3-c3ccccc3)cc2)c1	inactive: -12.3%
Cc1ccc(C)c(Cn2c(-c3cccs3)nc3ccccc32)c1	inactive: 2.1%
Cc1ccc(C)c(CN2C(=O)N(c3cc(Cl)ccc3C)S(=O)(=O)c3ccccc32)c1	inactive: -20.8%
CCOc1ccccc1CNS(=O)(=O)c1ccc2[nH]c(=O)ccc2c1	inactive: -0.136%
CC(C)Cc1ccc(S(=O)(=O)Nc2cc3c(cc2N2CCOCC2)n(C)c(=O)c(=O)n3C)cc1	inactive: 10.4%
CC(C)c1ccc(S(=O)(=O)c2nnn3c2nc(N2CCCCC2)c2sccc23)cc1	inactive: 3.02%
CC(C)(C)c1ccc(S(=O)(=O)N2CCN(Cc3noc(CCC(=O)N4CCCCC4)n3)CC2)cc1	inactive: -29.9%
COc1ccc(-c2nc(CSc3nncn4c3cc3sccc34)c(C)o2)cc1OC	inactive: 7.63%
O=C(CN1C(=O)CCc2cc(S(=O)(=O)N3CCOCC3)ccc21)NCc1ccccc1	inactive: 1.79%
CCNc1nc(OC)nc(Oc2ccc(=O)[nH]n2)n1	inactive: 0.598%
COc1ccc(C(=O)n2nc(-c3ccco3)nc2NCc2cccs2)cc1OC	inactive: 0.586%
CCc1ccccc1NC(=O)N(C)CCc1c(C)nn(C)c1C	inactive: 10.4%
Cc1ccc(-c2nc3sc(CCNC(=O)c4ccc(C)c(C)c4)c(C)n3n2)cc1	inactive: 2%
Cc1cc(C)cc(S(=O)(=O)c2cn(C)c3cc(N4CCCC4)c(F)cc3c2=O)c1	inactive: -0.445%
